Results published in publication PMC3709894.
Residue numbers refer to the chain shown, from its start. These are yes or no findings as the source states them, for the method shown. In cells and extracts the contact can be indirect. Some binding calls cover weakened binding; strength is not graded here. For some assays here: Sequences can lack the tags named with a protein. One block for each binder: values may come before it.

How the values were obtained:
[1] = target: T1, C-terminal fragment (451–631 aa) of Rad21 (Rad21 CT), expressed in 293 T cells (human) (UniProt O60216); assay: co-IP; 293 T cells transfected with differently tagged (Flag, HA) Rad21 NT, MP or CT fragments; IP from cell lysates 40 h after transfection; blots of the other copy and of endogenous proteins
T1 sequence: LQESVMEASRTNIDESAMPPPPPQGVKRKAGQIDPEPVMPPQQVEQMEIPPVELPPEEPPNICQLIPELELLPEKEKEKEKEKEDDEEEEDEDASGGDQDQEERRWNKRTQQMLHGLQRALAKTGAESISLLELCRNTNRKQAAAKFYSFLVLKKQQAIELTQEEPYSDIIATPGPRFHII

[2] = target: T2, middle part (173–450 aa) of Rad21 (Rad21 MP), expressed in 293 T cells (human) (UniProt O60216); assay: as above
T2 sequence: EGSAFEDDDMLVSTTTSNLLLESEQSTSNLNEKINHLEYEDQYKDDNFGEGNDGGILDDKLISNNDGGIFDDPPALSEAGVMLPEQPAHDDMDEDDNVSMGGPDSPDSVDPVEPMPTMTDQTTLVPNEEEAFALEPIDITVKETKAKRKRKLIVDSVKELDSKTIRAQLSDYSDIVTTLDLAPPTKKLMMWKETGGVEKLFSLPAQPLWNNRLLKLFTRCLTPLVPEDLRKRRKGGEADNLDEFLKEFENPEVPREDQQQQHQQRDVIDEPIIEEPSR

[3] = target: T3, N-terminal fragment (1–172 aa) of Rad21 (Rad21 NT), expressed in 293 T cells (human) (UniProt O60216); assay: as above
T3 sequence: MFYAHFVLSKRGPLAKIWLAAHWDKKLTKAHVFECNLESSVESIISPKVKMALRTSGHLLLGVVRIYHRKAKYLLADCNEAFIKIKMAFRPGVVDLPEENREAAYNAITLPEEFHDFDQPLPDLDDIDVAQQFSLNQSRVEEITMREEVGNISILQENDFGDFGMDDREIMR

[4] = target: T4, Myc-Rad21 TM (L385A F389A T390A) in pCS2MT (human) (UniProt O60216); assay: co-IP; 293 T cells transfected with Myc-Rad21 WT or mutants; IP from whole cell lysate, blots of endogenous cohesin subunits including endogenous Rad21
T4 sequence: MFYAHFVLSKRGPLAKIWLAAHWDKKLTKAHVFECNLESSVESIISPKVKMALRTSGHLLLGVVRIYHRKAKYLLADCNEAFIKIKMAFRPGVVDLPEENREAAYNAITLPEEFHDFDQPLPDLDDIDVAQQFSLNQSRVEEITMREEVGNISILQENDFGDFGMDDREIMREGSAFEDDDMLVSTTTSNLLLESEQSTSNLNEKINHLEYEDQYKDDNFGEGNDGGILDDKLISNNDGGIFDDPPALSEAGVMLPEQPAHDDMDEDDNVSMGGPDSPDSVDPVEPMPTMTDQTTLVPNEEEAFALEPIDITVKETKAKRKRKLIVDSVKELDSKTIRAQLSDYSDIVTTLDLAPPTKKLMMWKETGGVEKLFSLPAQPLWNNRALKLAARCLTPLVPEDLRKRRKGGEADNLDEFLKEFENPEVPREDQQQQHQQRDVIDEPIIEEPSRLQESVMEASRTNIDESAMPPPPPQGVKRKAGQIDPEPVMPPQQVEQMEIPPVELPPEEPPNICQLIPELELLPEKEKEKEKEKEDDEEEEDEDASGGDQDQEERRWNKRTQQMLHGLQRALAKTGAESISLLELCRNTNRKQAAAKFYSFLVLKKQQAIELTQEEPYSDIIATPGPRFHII

[5] = target: T5, Myc-Rad21 Del (del(383–392 aa)) in pCS2MT (human) (UniProt O60216); assay: as above
T5 sequence: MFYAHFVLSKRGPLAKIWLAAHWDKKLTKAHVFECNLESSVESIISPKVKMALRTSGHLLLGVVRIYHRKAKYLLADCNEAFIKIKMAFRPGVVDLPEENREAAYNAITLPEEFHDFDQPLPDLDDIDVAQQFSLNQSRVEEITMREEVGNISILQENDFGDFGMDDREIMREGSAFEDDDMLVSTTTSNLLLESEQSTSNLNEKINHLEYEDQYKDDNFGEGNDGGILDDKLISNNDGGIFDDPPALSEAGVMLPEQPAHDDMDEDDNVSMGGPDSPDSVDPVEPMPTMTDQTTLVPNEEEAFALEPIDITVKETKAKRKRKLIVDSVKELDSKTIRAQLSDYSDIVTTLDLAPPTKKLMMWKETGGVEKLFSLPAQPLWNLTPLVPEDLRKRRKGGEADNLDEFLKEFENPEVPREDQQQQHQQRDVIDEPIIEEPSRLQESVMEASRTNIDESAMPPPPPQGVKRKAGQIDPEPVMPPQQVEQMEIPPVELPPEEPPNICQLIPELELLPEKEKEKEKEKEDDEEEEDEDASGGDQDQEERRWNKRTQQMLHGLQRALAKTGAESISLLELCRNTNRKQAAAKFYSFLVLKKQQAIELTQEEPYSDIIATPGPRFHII

[6] = target: T6, Flag-Rad21 triple mutant (TM) L385A F389A T390A (human) (UniProt O60216); assay: co-IP; 293 T cells transfected with pFlag CMV2 Rad21 constructs; IP of Flag-Rad21 (Flag mAb agarose beads) from whole cell lysate, blots of endogenous cohesin subunits and associated proteins
T6 sequence: T4 sequence

[7] = target: T7, Flag-Rad21 Del(383–392 aa), full length devoid of 383–392 aa (human) (UniProt O60216); assay: as above
T7 sequence: T5 sequence

[8] = target: T8, Flag-Rad21 WT (full length) in pFlag CMV2 (human) (UniProt O60216); assay: as above
T8 sequence: T4 sequence with A385L, A389F, A390T

binding [1]: no binding
B1: C-terminal fragment (451–631 aa) of Rad21 (Rad21 CT), expressed in 293 T cells (domain or fragment, UniProt O60216 451-631)
chain: T1 sequence

binding [2]: no binding | binding [3]: binds | binding [4]: binds | binding [5]: binds
B2: endogenous Rad21 (protein, UniProt O60216 1-631)
chain: T4 sequence with A385L, A389F, A390T

binding [6]: binds | binding [7]: binds | binding [8]: binds
B3: endogenous Wapl (protein, UniProt Q7Z5K2 1-1190)
chain: MTSRFGKTYSRKGGNGSSKFDEVFSNKRTTLSTKWGETTFMAKLGQKRPNFKPDIQEIPKKPKVEEESTGDPFGFDSDDESLPVSSKNLAQVKCSSYSESSEAAQLEEVTSVLEANSKISHVVVEDTVVSDKCFPLEDTLLGKEKSTNRIVEDDASISSCNKLITSDKVENFHEEHEKNSHHIHKNADDSTKKPNAETTVASEIKETNDTWNSQFGKRPESPSEISPIKGSVRTGLFEWDNDFEDIRSEDCILSLDSDPLLEMKDDDFKNRLENLNEAIEEDIVQSVLRPTNCRTYCRANKTKSSQGASNFDKLMDGTSQALAKANSESSKDGLNQAKKGGVSCGTSFRGTVGRTRDYTVLHPSCLSVCNVTIQDTMERSMDEFTASTPADLGEAGRLRKKADIATSKTTTRFRPSNTKSKKDVKLEFFGFEDHETGGDEGGSGSSNYKIKYFGFDDLSESEDDEDDDCQVERKTSKKRTKTAPSPSLQPPPESNDNSQDSQSGTNNAENLDFTEDLPGVPESVKKPINKQGDKSKENTRKIFSGPKRSPTKAVYNARHWNHPDSEELPGPPVVKPQSVTVRLSSKEPNQKDDGVFKAPAPPSKVIKTVTIPTQPYQDIVTALKCRREDKELYTVVQHVKHFNDVVEFGENQEFTDDIEYLLSGLKSTQPLNTRCLSVISLATKCAMPSFRMHLRAHGMVAMVFKTLDDSQHHQNLSLCTAALMYILSRDRLNMDLDRASLDLMIRLLELEQDASSAKLLNEKDMNKIKEKIRRLCETVHNKHLDLENITTGHLAMETLLSLTSKRAGDWFKEELRLLGGLDHIVDKVKECVDHLSRDEDEEKLVASLWGAERCLRVLESVTVHNPENQSYLIAYKDSQLIVSSAKALQHCEELIQQYNRAEDSICLADSKPLPHQNVTNHVGKAVEDCMRAIIGVLLNLTNDNEWGSTKTGEQDGLIGTALNCVLQVPKYLPQEQRFDIRVLGLGLLINLVEYSARNRHCLVNMETSCSFDSSICSGEGDDSLRIGGQVHAVQALVQLFLERERAAQLAESKTDELIKDAPTTQHDKSGEWQETSGEIQWVSTEKTDGTEEKHKKEEEDEELDLNKALQHAGKHMEDCIVASYTALLLGCLCQESPINVTTVREYLPEGDFSIMTEMLKKFLSFMNLTCAVGTTGQKSISRVIEYLEHC
